Measurements taken from US5244883A, “Nonapeptide bombesin antagonists” (The Administrators of the Tulane Educational Fund, priority 1990, dated 1993).
Like-named read-outs stand apart in the source and are kept apart here. Part of at least one peptide drawing is inferred or uncertain, most often the ends. For some assays here: At least one structure is not confirmed: it was looked up by name or label, or the drawing left a doubt. Where a SMILES comes first, the peptide text is derived from it. [ ]: non-standard residue; d: D form. The star is where a group is joined. His(τ-Bzl) = N[C@@H](Cc1cn(Cc2ccccc2)cn1)C(=O)O; X2 = CC(C)C[C@@H](CN[C@@H](CC(C)C)C(N)=O)N*; dTpi = O=C(O)[C@H]1Cc2c([nH]c3ccccc23)CN1

Tests used:
[1] = target: T1, GRP receptors on Swiss 3T3 cells (Mus musculus, UniProt P21729); assay: Receptor binding assay: displacement of 125I-GRP(14-27) on Swiss 3T3 cells; set-up: species or system Murine; settings: for IC50: calculated by Cheng and Prussoff equation IC50=Kc(1+L/Kh), 0.2 nM radioligand, read-out: IC50; for Ka: association constant, N.D.=NO DISPLACEMENT
T1 construct: conducted in 24-well tissue culture plates (GIBCO) using Swiss 3T3 cells; endogenous in cells; host or cells: Murine Swiss 3T3 fibroblasts (intact confluent, quiescent cells)
Experimental: (A) Receptor Binding Assay
Binding of ^125 I-GRP(14-27) and displacement by bombesin antagonists were conducted in 24-well tissue culture plates (GIBCO) using Swiss 3T3 cells. Murine Swiss 3T3 fibroblasts were maintained by weekly passage in DMEM containing 10% FCBS and antimycotics. Cultures were incubated in 5% CO2 in air at 37° C. The wells were seeded with 10^5 cells/well (viability >95%), grown to confluence and quiescency. The binding procedure was conducted 7 days after seeding. The cells were washed 2 times with 0.5 ml of binding buffer (Dulbecco's modified Eagle's medium containing […] (pH 7.4), 0.2% BSA and 100 mcg/ml bacitracin). The cells were then incubated with 0.2 nM ^125 I-GRP (14-27) in the presence or absence of different concentrations of antagonists (6×10^-11 -6×10^-6 M, total volume 0.4 ml).
According to Zachary and Rozengurt (1985) and Layton et al., (1988), binding of ^125 I-GRP at 37° C. reached a maximum value at 30 min and decreased afterwards; so, the cells were incubated at 37° C. for 30 min. After that, the cells were washed 2 times with ice-cold (4° C.) binding buffer and 2 times with the ice-cold phosphate-buffered saline (PBS,mM): NaCl 138, KCl 2.8, Na2 HPO4 8, KH2 PO4 1.45, CaCl2 0.91, MgCl2 0.49. Washed cultures were extracted in 0.5 ml of 0.5M NaOH and transferred to tubes for counting. The wells were washed once with 0.5 ml distilled water (sterile), and the washing were added to the appropriate tubes. Then the radio-activity of the samples was counted in an automatic gamma counter (Micromedic System, Inc., Huntsville, Ala.).
The Ligand - PC computerized curve fitting program of Munson and Rodbard was used to determine the types of receptor binding, dissociation constant (Kd), association constant (Ka), the maximal binding capacity of receptors (Bmax) and half-maximal inhibition (IC50).
IC50 values represent concentrations of antagonists causing half-maximal inhibition of 0.2 nM GRP(14-27) stimulated growth. Dissociation constant and maximal binding capacity of ^125 I-GRP (14-27) in our experiments were 1.32 nm and 0.769 pm/mg protein, respectively, which were similar to those reported for ^125 I-GRP and ^125 I-Tyr^4 -bombesin. Binding characteristics of GRP receptors on 3T3 cells in these experiments agree well with values obtained for bombesin binding to pancreatic acinar (Jensen et al., 1978) and pituitary cells (Westendorf and Schonbrunn, 1983).
IC50 is the concentration of unlabelled ligand that displaced half the specific radioligand binding. It is calculated according to the equation of Cheng and Prussoff (1973): IC50 =Kc (1+L/Kh), where Kc and Kh are the dissociation constants of unlabelled (cold) and labelled (hot) ligand respectively, and L is the concentration of radioligand used.

[2] = system: 3T3 CELLS; format: cell-based, Murine; settings: basal 207000, GRP alone 348000
Experimental: (C) Inhibition of ^3 H-Thymidine incorporation by 3T3cells. SCLC cells were used 2 to 4 days after passage. Single cell suspensions were prepared by washing the cells (twice with PBS then pipetting them in PBS containing 0.2 g/liter glucose, 0.2 g/liter EDTA, and 14 mM lignocaine hydrochloride at 37° C. until the suspension appeared to be uniform (2-4 min). The cells were washed three times and resuspended in HITES without FCSB. Cultures were set up at 1.34×10^5 cells plated on day 0, all peptides added at same time in 1 ml. of RPMI-1640 medium plus HITES and 0.125% albumin. 48 hours later, 1 uc. of tritiated thymidine was added to each well and incubation continued for an additional 24 hours. Cells then were washed and deposited on glass filter paper and washed with ice cold 5% trichloro-acetic acid. Filter paper placed in vials containing scintillation fluid and counted for 1 minute. | 348,000 - 207,000 = 141,000 was taken as the stimulation

[3] = 0.2 nM 125I-GRP(14-27), Swiss 3T3 cells, 37° C. 30 min, read-out: Kd
[4] = 0.2 nM 125I-GRP(14-27), Swiss 3T3 cells, 37° C. 30 min
[5] = peptide 500 ng/ml + GRP 3 ng/ml
[6] = peptide 1000 ng/ml + GRP 3 ng/ml

T1 sequence (P21729 whole entry): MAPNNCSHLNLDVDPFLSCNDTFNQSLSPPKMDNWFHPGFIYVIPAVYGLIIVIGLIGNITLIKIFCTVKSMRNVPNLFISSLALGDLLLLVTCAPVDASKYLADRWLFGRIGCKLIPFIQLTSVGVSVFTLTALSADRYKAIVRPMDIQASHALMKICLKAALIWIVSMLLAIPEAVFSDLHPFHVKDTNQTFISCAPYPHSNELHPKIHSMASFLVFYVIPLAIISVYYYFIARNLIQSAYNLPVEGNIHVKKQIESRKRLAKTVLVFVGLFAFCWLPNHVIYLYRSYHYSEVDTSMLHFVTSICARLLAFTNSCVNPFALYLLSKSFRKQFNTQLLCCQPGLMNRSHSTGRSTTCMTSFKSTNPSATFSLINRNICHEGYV

SMILES | Kd [1, 3] [nM] | IC50 [1] [nM] | Ka [1, 4] [nM⁻¹] | also measured
CSCC[C@H](NC(=O)[C@H](CC(C)C)NC(=O)[C@H](Cc1c[nH]cn1)NC(=O)CNC(=O)[C@@H](NC(=O)[C@H](C)NC(=O)[C@H](Cc1c[nH]c2ccccc12)NC(=O)[C@H](Cc1c[nH]cn1)NC(=O)[C@H](CC(N)=O)NC(=O)CNC(=O)[C@H](CCCNC(=N)N)NC(=O)[C@@H]1CCCN1C(=O)[C@H](Cc1ccc(O)cc1)NC(=O)[C@@H](N)CCSC)C(C)C)C(N)=O [125I-GRP (14-27), reference compound] |  |  |  | Kd ([1]; radioligand on Swiss 3T3 cells, read-out: Dissociation constant of 125I-GRP(14-27)): 1.32 nM
CC(C)C[C@@H](CN[C@@H](CC(C)C)C(N)=O)NC(=O)[C@H](Cc1c[nH]cn1)NC(=O)CNC(=O)[C@@H](NC(=O)[C@H](C)NC(=O)[C@H](Cc1c[nH]c2ccccc12)NC(=O)[C@H](Cc1cn(Cc2ccccc2)cn1)NC(=O)[C@H]1Cc2c([nH]c3ccccc23)CN1)C(C)C [Peptide 8, D--Tpi--His(Bz)--Trp--Ala--Val--Gly--His--Leu-psi-Leu--NH2] (H-[dTpi][His(τ-Bzl)]WAVGH-X2) | 71 | 82.1 |  | 
CNC(=O)CC[C@H](NC(=O)[C@H](N)Cc1c[nH]c2ccccc12)C(=O)N[C@@H](Cc1c[nH]c2ccccc12)C(=O)N[C@@H](C)C(=O)N[C@H](C(=O)NCC(=O)N[C@@H](Cc1c[nH]cn1)C(=O)N[C@H](CN[C@@H](Cc1ccccc1)C(N)=O)CC(C)C)C(C)C [Peptide 11, D--Trp--Glu(MeNH)--Trp--Ala--Val--Gly--His--Leu-psi-Phe--NH2] |  |  | 0.217 | 
CC(C)C[C@@H](CN[C@@H](Cc1ccccc1)C(N)=O)NC(=O)[C@H](Cc1c[nH]cn1)NC(=O)CNC(=O)[C@@H](NC(=O)[C@H](C)NC(=O)[C@H](Cc1c[nH]c2ccccc12)NC(=O)[C@H](CCC(N)=O)NC(=O)[C@H]1Cc2c([nH]c3ccccc23)CN1)C(C)C [Peptide 12, D--Tpi--Gln--Trp--Ala--Val--Gly--His--Leu-psi-Phe--NH2] (HELM PEPTIDE1{[O=C([C@H]1Cc2c([nH]c3ccccc23)CN1)[*:2]].Q.W.A.V.G.H.[CC(C)C[C@@H](CN[C@@H](Cc1ccccc1)C(N)=O)N[*:1]]}$$$$V2.0) | 71 | 81.7 |  | 
CC(C)C[C@@H](CN1Cc2[nH]c3ccccc3c2C[C@H]1C(N)=O)NC(=O)[C@H](Cc1c[nH]cn1)NC(=O)CNC(=O)[C@@H](NC(=O)[C@H](C)NC(=O)[C@H](Cc1c[nH]c2ccccc12)NC(=O)[C@H](CCC(N)=O)NC(=O)[C@H](N)Cc1ccccc1)C(C)C [Peptide 17, D--Phe--Gln--Trp--Ala--Val--Gly--His--Leu-psi-Tpi--NH2] |  |  | 0.955 | DPM ± S.E. ([2]; peptide 50 ng/ml + GRP 3 ng/ml): 277000 ± 9800 DPM; DPM ± S.E. [2, 5]: 207000 ± 3800 DPM; DPM ± S.E. [2, 6]: 223000 ± 1200 DPM
CC(C)C[C@@H](CN1Cc2[nH]c3ccccc3c2C[C@H]1C(N)=O)NC(=O)[C@H](Cc1c[nH]cn1)NC(=O)CNC(=O)[C@@H](NC(=O)[C@H](C)NC(=O)[C@H](Cc1c[nH]c2ccccc12)NC(=O)[C@H](CCC(N)=O)NC(=O)[C@H](N)Cc1c[nH]c2ccccc12)C(C)C [Peptide 18, D--Trp--Gln--Trp--Ala--Val--Gly--His--Leu-psi-Tpi--NH2] |  |  | 0.257 | 
CC(C)C[C@@H](CN1Cc2[nH]c3ccccc3c2C[C@H]1C(N)=O)NC(=O)[C@H](Cc1c[nH]cn1)NC(=O)CNC(=O)[C@@H](NC(=O)[C@H](C)NC(=O)[C@H](Cc1c[nH]c2ccccc12)NC(=O)[C@H](CCC(N)=O)NC(=O)[C@@H]1Cc2c([nH]c3ccccc23)CN1)C(C)C [Peptide 22, Tpi--Gln--Trp--Ala--Val--Gly--His--Leu-psi-Tpi--NH2] |  |  | 1.012 | DPM ± S.E. ([2]; peptide 50 ng/ml + GRP 3 ng/ml): 269000 ± 564000 DPM; DPM ± S.E. [2, 5]: 280000 ± 14000 DPM; DPM ± S.E. [2, 6]: 198000 ± 18800 DPM
CC(C)C[C@@H](CN1Cc2[nH]c3ccccc3c2C[C@H]1C(N)=O)NC(=O)[C@H](Cc1c[nH]cn1)NC(=O)CNC(=O)[C@@H](NC(=O)[C@H](C)NC(=O)[C@H](Cc1c[nH]c2ccccc12)NC(=O)[C@H](CCC(N)=O)NC(=O)[C@H]1Cc2c([nH]c3ccccc23)CN1)C(C)C [Peptide 26, D--Tpi--Gln--Trp--Ala--Val--Gly--His--Leu-psi-Tpi--NH2] |  |  | 0.045 | DPM ± S.E. ([2]; peptide 50 ng/ml + GRP 3 ng/ml): 233000 ± 8800 DPM; DPM ± S.E. [2, 5]: 205000 ± 12500 DPM; DPM ± S.E. [2, 6]: 222000 ± 3900 DPM
COc1ccc(CCC(=O)N[C@@H](CCC(N)=O)C(=O)N[C@@H](Cc2c[nH]c3ccccc23)C(=O)N[C@@H](C)C(=O)N[C@H](C(=O)NCC(=O)N[C@@H](Cc2c[nH]cn2)C(=O)N[C@H](CN[C@@H](Cc2c[nH]c3ccccc23)C(N)=O)CC(C)C)C(C)C)cc1 [Peptide 27, Mpp--Gln--Trp--Ala--Val--Gly--His--Leu-psi-Trp--NH2] (HELM PEPTIDE1{[COc1ccc(CCC(=O)[*:2])cc1].Q.W.A.V.G.H.[CC(C)C[C@@H](CN[C@@H](Cc1c[nH]c2ccccc12)C(N)=O)N[*:1]]}$$$$V2.0) | 74.5 | 85.7 |  | 
CC(C)C[C@@H](CN[C@@H](Cc1c[nH]c2ccccc12)C(N)=O)NC(=O)[C@H](Cc1c[nH]cn1)NC(=O)CNC(=O)[C@@H](NC(=O)[C@H](C)NC(=O)[C@H](Cc1c[nH]c2ccccc12)NC(=O)[C@H](CCC(N)=O)NC(=O)[C@H](N)Cc1ccccc1)C(C)C [Peptide 28, D--Phe--Gln--Trp--Ala--Val--Gly--His--Leu-psi-Trp--NH2] |  |  | 0.125 | 
CC(C)C[C@@H](CN[C@@H](Cc1c[nH]c2ccccc12)C(N)=O)NC(=O)[C@H](Cc1c[nH]cn1)NC(=O)CNC(=O)[C@@H](NC(=O)[C@H](C)NC(=O)[C@H](Cc1c[nH]c2ccccc12)NC(=O)[C@H](CCC(N)=O)NC(=O)[C@H](N)Cc1c[nH]c2ccccc12)C(C)C [Peptide 29, D--Trp--Gln--Trp--Ala--Val--Gly--His--Leu-psi-Trp--NH2] |  |  | 0.0019 | 
CC(C)C[C@@H](CN[C@@H](Cc1cn(C=O)c2ccccc12)C(N)=O)NC(=O)[C@H](Cc1c[nH]cn1)NC(=O)CNC(=O)[C@@H](NC(=O)[C@H](C)NC(=O)[C@H](Cc1c[nH]c2ccccc12)NC(=O)[C@H](CCC(N)=O)NC(=O)[C@H](N)Cc1c[nH]c2ccccc12)C(C)C [Peptide 33, D--Trp--Gln--Trp--Ala--Val--Gly--His--Leu-psi-Trp(For)--NH2] | 556 | 639 | 0.002 | 
CC(C)C[C@@H](CN[C@@H](Cc1cn(C=O)c2ccccc12)C(N)=O)NC(=O)[C@H](Cc1c[nH]cn1)NC(=O)CNC(=O)[C@@H](NC(=O)[C@H](C)NC(=O)[C@H](Cc1c[nH]c2ccccc12)NC(=O)[C@H](CCC(N)=O)NC(=O)[C@H]1Cc2c([nH]c3ccccc23)CN1)C(C)C [Peptide 34, D--Tpi--Gln--Trp--Ala--Val--Gly--His--Leu-psi-Trp(For)--NH2] | 1670 | 1920 | 0.0006 | 
